The subject of the assay is NCI-H322M lung. Briefly: NCI anticancer screen, dose series, 48 h.

The structures appear in SMILES notation.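 Briefly, cells in 96-well plates were exposed to five compound concentrations for 48 h, and endpoints were estimated by linear interpolation. Abbreviation: GI50, concentration required for 50% inhibition of growth. At the TGI there is no net growth.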

`O=C(Nc1ccc(Cl)c(C(F)(F)F)c1)Nc1ccc2c(ccn2C(=O)c2cccc(F)c2)c1`: the GI50 was 3.26 µM and the TGI came to 21.7 µM.

As for `CCOP(=O)(OCC)OC[C@]12CCC(C)(C)C[C@H]1C1=CC[C@@H]3[C@@]4(C)C/C(=C\c5cccnc5)[C@H](OP(=O)(OCC)OCC)C(C)(C)[C@@H]4CC[C@@]3(C)[C@]1(C)CC2`, the GI50 is 1.95 µM and the TGI was 4.41 µM.

For the origin of these results see PubChem BioAssay (NCI).
